Measurements from publication PMC2730531.
Results are given in words; binding and its absence hold for the method and conditions named. In cells and extracts the contact can be indirect. Some results given as binding are weak or reduced against the parent protein; the word gives no strength. Tags and fused reporters may be left off the sequences shown.

The chains behind the UniProt entries cited, without tags or fusion partners. Where a name states a change or a piece, a line headed by the entry shows the natural chain unless it says otherwise.
UniProt P25302: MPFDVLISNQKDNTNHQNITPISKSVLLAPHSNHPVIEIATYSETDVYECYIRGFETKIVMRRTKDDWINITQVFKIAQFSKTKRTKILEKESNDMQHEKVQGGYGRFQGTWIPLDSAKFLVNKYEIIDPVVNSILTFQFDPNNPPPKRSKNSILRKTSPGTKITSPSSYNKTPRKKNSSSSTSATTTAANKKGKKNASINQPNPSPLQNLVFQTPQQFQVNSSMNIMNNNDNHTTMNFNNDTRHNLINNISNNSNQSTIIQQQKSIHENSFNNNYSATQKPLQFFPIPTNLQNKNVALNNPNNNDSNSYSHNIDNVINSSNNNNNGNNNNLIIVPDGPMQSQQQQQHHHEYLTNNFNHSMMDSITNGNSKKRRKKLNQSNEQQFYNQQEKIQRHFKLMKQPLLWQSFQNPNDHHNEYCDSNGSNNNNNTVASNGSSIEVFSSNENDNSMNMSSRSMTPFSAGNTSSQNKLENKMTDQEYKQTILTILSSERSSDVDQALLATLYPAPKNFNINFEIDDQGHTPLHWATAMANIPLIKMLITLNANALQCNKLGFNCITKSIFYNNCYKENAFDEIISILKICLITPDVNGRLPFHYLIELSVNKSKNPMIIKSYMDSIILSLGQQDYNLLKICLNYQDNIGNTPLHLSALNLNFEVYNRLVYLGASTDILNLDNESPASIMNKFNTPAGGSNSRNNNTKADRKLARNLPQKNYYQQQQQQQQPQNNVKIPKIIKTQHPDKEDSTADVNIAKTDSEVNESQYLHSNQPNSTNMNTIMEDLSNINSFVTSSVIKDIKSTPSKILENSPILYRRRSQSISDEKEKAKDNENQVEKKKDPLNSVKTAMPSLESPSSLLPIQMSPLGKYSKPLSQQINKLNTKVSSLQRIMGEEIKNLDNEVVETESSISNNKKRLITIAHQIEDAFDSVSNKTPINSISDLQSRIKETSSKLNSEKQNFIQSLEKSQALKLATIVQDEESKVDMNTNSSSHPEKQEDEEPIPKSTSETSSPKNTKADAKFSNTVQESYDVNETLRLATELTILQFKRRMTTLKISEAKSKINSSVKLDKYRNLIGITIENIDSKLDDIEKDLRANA
UniProt P09959: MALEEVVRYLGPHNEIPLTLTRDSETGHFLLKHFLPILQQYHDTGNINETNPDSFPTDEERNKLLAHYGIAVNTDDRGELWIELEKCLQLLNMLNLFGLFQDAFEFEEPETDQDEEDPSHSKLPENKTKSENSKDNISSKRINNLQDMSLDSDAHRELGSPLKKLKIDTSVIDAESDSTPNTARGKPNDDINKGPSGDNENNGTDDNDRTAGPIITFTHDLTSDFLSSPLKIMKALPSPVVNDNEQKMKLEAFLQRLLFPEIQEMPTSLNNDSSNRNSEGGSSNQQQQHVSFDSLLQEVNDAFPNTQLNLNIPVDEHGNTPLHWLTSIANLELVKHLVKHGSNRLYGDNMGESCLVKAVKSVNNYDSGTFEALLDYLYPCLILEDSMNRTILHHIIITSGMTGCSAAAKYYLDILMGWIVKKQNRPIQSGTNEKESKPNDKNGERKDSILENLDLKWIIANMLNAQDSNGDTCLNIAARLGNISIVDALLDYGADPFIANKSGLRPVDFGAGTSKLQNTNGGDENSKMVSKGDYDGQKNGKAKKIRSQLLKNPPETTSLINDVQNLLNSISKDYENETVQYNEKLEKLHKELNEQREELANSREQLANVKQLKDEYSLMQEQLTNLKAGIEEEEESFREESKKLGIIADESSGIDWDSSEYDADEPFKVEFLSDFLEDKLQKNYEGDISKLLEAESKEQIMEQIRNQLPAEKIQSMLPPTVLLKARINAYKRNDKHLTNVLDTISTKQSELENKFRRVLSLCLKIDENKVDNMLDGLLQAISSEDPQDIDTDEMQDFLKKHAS

T1: Whi5^MYC (S. cerevisiae) (UniProt Q12416)
T1 sequence: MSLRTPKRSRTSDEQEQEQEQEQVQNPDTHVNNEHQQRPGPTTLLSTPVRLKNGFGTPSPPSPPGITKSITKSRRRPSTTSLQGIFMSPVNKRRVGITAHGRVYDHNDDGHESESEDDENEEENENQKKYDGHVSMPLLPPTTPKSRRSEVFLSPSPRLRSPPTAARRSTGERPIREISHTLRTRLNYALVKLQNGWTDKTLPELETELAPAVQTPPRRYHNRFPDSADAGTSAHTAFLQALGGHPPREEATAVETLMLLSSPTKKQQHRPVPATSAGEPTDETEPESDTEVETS

T2: Whi5^GST (expressed in yeast) (S. cerevisiae) (UniProt Q12416)
T2 sequence: T1 sequence

B1: Pcl9^HA (protein, UniProt Q12477 1-304)
chain: MISDYDALLQFNKKPVSQEMIQFLATSTASIIKIRENNNPIQGCRPPDLSIFIKNVVIQSNVQTPTLMATSVYLNKLKSVIPKNVYGINTTRHRIFLGCLILAAKTLNDSSPWNKHWTTYTEGLLRIREVNTIERELLEYLNWDVRITTPDLIDSLSYFLGPIKEQLFLQRRQEMLLFNAPSPGQLKEYINHRRPVSHSRTSSAISVPSLTSMATVSTTDSRSSLLAKYQPSLPLVESDNFNKKNHVPLRNNNDICNNFRAEENIHSVNHIDVTMGSSPVMSHKPTIHQRLNFTRRGWSSFFKQ
B2: GST-Whi5 (recombinant, E. coli) (protein, UniProt Q12416 1-295)
chain: T1 sequence
B3: GST-Whi5 phosphorylated by Cln3-Cdc28 (protein, UniProt Q12416 1-295)
chain: T1 sequence
modifications: phosphorylated in vitro by Cln3-Cdc28; sites not given
B4: GST-Whi5 phosphorylated by Pcl9-Pho85 (protein, UniProt Q12416 1-295)
chain: T1 sequence
modifications: phosphorylated in vitro by Pcl9-Pho85; sites not given
B5: GST-Whi5 phosphorylated by both Cln3-Cdc28 and Pcl9-Pho85 (protein, UniProt Q12416 1-295)
chain: T1 sequence
modifications: phosphorylated in vitro by both Cln3-Cdc28 and Pcl9-Pho85; sites not given
B6: Hos3^TAP (enzyme, UniProt Q02959 1-697)
chain: MSSKHSDPLERFYKQFQAFVQNNPNVISAARAAAQIPESAKAVVVLSPYSLQHVFPREWVTKSYRKTIVERPERLLASSMGISAAITMYPSLFTLKSSHQRKGSLMAPHVLKVHGSSWPAELIELCQMADAKLLKGEIEVPDTWNSGDIYLSSKTIKALQGTIGAIETGVDSIFKGPSAEHISNRAFVAIRPPGHHCHYGTPSGFCLLNNAHVAIEYAYDTYNVTHVVVLDFDLHHGDGTQDICWKRAGFKPEEEPEDSSYDDFGKKFAEFPKVGYFSMHDINSFPTESGFATKENIKNASTCIMNSHDLNIWNIHLSKWTTEEEFNVLYRTKYRTLFAKADEFFRSAKLEMNQQGRPFKGLVVISAGFDASEFEQTSMQRHSVNVPTSFYTTFTKDALKLAQMHCHGKVLSLMEGGYSDKAICSGVFAHLIGLQNQDWVKEWGSEQVVKEIVRGCKPAWKPYKTKRAKDVIRIWAEEVIRLGRAMIPEFDDIIFKDAVNSAPSNSLLKATVEPASTSTIAQRIIRSHRSNASPEKELHENKPRSTEKQEQREIRSDTKVKQLSSNNRAAETQIPFLQQEFSSEDEDEEYVYDEELNKTFNRTVEDITIDDISRHLETLEIEKKGDEDSDHELKEKNWKNSHQRRLQGNGMYKIPSNTKPHRIRQPQNANTPTYDDSDISMISHVSRKHTTRSGGRW
B7: Rpd3^TAP (enzyme, UniProt P32561 1-433)
chain: MVYEATPFDPITVKPSDKRRVAYFYDADVGNYAYGAGHPMKPHRIRMAHSLIMNYGLYKKMEIYRAKPATKQEMCQFHTDEYIDFLSRVTPDNLEMFKRESVKFNVGDDCPVFDGLYEYCSISGGGSMEGAARLNRGKCDVAVNYAGGLHHAKKSEASGFCYLNDIVLGIIELLRYHPRVLYIDIDVHHGDGVEEAFYTTDRVMTCSFHKYGEFFPGTGELRDIGVGAGKNYAVNVPLRDGIDDATYRSVFEPVIKKIMEWYQPSAVVLQCGGDSLSGDRLGCFNLSMEGHANCVNYVKSFGIPMMVVGGGGYTMRNVARTWCFETGLLNNVVLDKDLPYNEYYEYYGPDYKLSVRPSNMFNVNTPEYLDKVMTNIFANLENTKYAPSVQLNHTPRDAEDLGDVEEDSAEAKDTKGGSQYARDLHVEHDNEFY
B8: Hos1^TAP (enzyme, UniProt Q12214 1-470)
chain: MSKLVISTSIFQSQVADLLPCNNHQKSQLTYSLINAYDLLQHFDEVLTFPYARKDDLLEFHSKSYIDYLINGRFNKMMAQDVNNPMVESKWSELSELADNWNEKIDYNPSQDLQRFTTRENLYNYYLNHSQALENNMDCINNSEVPTNDKPTDTYILNSETKQYNLEGDCPIFSYLPMYCQVITGATLNLLDHLSPTERLIGINWDGGRHHAFKQRASGFCYINDVVLLIQRLRKAKLNKITYVDFDLHHGDGVEKAFQYSKQIQTISVHLYEPGFFPGTGSLSDSRKDKNVVNIPLKHGCDDNYLELIASKIVNPLIERHEPEALIIECGGDGLLGDRFNEWQLTIRGLSRIIINIMKSYPRAHIFLLGGGGYNDLLMSRFYTYLTWCVTKQFSNLRCGDNNSFQIDPFDVCDGDDSEQFIREHDLVEMYNEENYQYWIYEMEGSSRMKMLRNDNKDRDMVELMKFYEL
B9: Pcl1^HA (protein, UniProt P24867 1-279)
chain: MCEYSKALHILLKSPVTDDIIKFLTDTTLRVVPSSNYPTPPGSPGEKHLTRLPSLMTFITRLVRYTNVYTPTLLTAACYLNKLKRILPRDATGLPSTIHRIFLACLILSAKFHNDSSPLNKHWARYTDGLFTLEDINLMERQLLQLLNWDLRVNTEDLILDLQPLLEPIKQDLARSSDQRKRINMMMSMNRRTCAGTSPIRSNNRFKLYEKQRNVSIASDLSSATLVDSCNDLRRLKDVTNIANNTVANTNYVRTVEKWNDNVNRQSWDLEQIMSQHGF

What was measured:
[1] = target: T1, Whi5^MYC (S. cerevisiae); assay: co-IP; anti-MYC immune precipitates of WHI5^MYC strain lysates bearing HA-tagged cyclin plasmids; probed with 9E10 anti-MYC and 12CA5 anti-HA
[2] = substrate: SBF (Swi6-Swi4^FLAG) (S. cerevisiae) (UniProt P25302+P09959); assay: pull-down; insect cell lysate expressing SBF (Swi6-Swi4^FLAG) mixed with purified GST-Whi5 (~0.1 µg) and M2 anti-FLAG resin in kinase buffer (50 mM Tris-HCl pH 7.5, 1 mM DTT, 10 mM MgCl2), 4°C 1 h, washed; then incubated with CDKs and 0.2 mM ATP at 30°C 1 h; soluble and bound fractions by autoradiography; only the binder purified
[3] = target: T2, Whi5^GST (expressed in yeast) (S. cerevisiae); assay: pull-down; batch affinity chromatography: lysates of TAP-tagged HDAC strains expressing WHI5^GST incubated with glutathione sepharose beads; immunoblot with α-GST and α-PAP; also with overexpressed PCL9^FLAG, CLN2^FLAG or CLN3^FLAG (obvious decrease in Rpd3 and Hos3 in Whi5 precipitates)

Binder | binding [2] | binding [3] | other results
B1 | – | – | binding [1]: binds
B2 | binds | – | –
B3 | binds | – | –
B4 | binds | – | –
B5 | binds | – | –
B6 | – | binds | –
B7 | – | binds | –
B8 | – | binds | –
B9 | – | – | binding [1]: no binding
